From the supplement of paper PMC4166925
± gives the standard deviation of the averaged measurements. In all, about 33,000 sequences were measured (“E-score (dimensionless, -0.5 to 0.5)”: median about -0.049, highest 2% from about 0.37 on). Some of the results follow.

Test system: T1, PmTbr T-box DNA-binding domain (GST fusion)
T1 sequence: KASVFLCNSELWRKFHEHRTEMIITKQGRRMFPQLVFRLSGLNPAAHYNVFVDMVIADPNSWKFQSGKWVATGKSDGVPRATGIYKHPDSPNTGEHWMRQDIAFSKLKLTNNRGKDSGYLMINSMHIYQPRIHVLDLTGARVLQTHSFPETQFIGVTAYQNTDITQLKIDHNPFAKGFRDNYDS
Assay: PBM E-score of 8-mer (E-score (dimensionless, -0.5 to 0.5)); Tbr is Tbrain of the sea star Patiria miniata (Pm) or the sea urchin Strongylocentrotus purpuratus (Sp); higher = stronger binding preference; most listed sequences are background and not binding sites
Conditions: the construct has about 5 more residues each side
Procedure: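 Universal protein-binding microarray (Agilent AMADID 016060, 60-bp probes with a 35-bp variable region) incubated with 200 nM GST-fused Patiria miniata Tbr T-box DNA-binding domain (residues 272-466) in PBS pH 7.5. Scored for every ungapped 8-mer (given with its reverse complement) by the Universal PBM Analysis Suite as E-score (modified Wilcoxon-Mann-Whitney enrichment, range -0.5 to 0.5; >0.45 counts as bound) and Z-score of median probe intensity. Two replicate arrays (datasets 1 and 2).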
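Further: 200 nM protein in PBS on universal arrays averaged over duplicate arrays.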

| Sequence | PBM E-score of 8-mer |
| --- | --- |
| ACAAAATG | 0.137 ± 0.059 |
| GGTAGCGA | 0.217 ± 0.011 |
| CTCGTTCC | -0.238 ± 0.041 |
| GAAGAGCA | -0.00224 ± 0.16 |
| ACGCGCAC | 0.0739 ± 0.028 |
| CTTGCTTA | 0.1055 ± 0.00096 |
| CAAGAGCA | -0.0882 ± 0.084 |
| ATCCACCA | -0.0511 ± 0.051 |
| CCACGCAA | -0.0508 ± 0.0079 |
| GAAAAGGC | 0.132 ± 0.028 |
| TACACCGA | 0.042 ± 0.083 |
| ATATGCCA | 0.04272 ± 0.00018 |
| AACCCGGT | -0.189 ± 0.041 |
| TCAACAAA | -0.12 ± 0.043 |
| AACACATA | 0.373 ± 0.0082 |
| GTGCCTGA | -0.0569 ± 0.042 |
| ACACGGTA | 0.11 ± 0.064 |
| ACAACGGT | 0.233 ± 0.0053 |
| AAACGATG | -0.0999 ± 0.069 |
| TAGCTGCA | -0.0612 ± 0.029 |
| ATATGGGC | -0.227 ± 0.019 |
| CCACCGAC | 0.0896 ± 0.016 |

| Sequence | PBM E-score of 8-mer |
| --- | --- |
| AATCCTGC | -0.0407 ± 0.025 |
| AAAGAGAT | 0.0271 ± 0.059 |
| TACAGATA | -0.0889 ± 0.062 |
| AGAATGAA | -0.101 ± 0.08 |
| TAGTTGGA | -0.315 ± 0.039 |
| TCGGCTAA | 0.0882 ± 0.0088 |
| AGACGGTA | -0.175 ± 0.026 |
| AACCCGTT | -0.121 ± 0.037 |
| GCTCAGAC | -0.149 ± 0.02 |
| ACTCGAGT | -0.0518 ± 0.1 |
| CACCCAGC | 0.19 ± 0.021 |
| AAAACGGG | -0.146 ± 0.0023 |
| AGGCAGCC | -0.182 ± 0.11 |
| AATTGGGG | -0.211 ± 0.0072 |
| GAAGCTCA | 0.0428 ± 0.0011 |
| CGCCTCCC | 0.199 ± 0.0023 |
| ACTACAGG | -0.128 ± 0.02 |
| CAGAGGGC | -0.184 ± 0.056 |
| ACTCGGAC | 0.0843 ± 0.0036 |
| ATGACGAA | -0.065 ± 0.04 |
| CTACCAGC | 0.0264 ± 0.083 |
| ACTAAGCT | -0.153 ± 0.021 |

| Sequence | PBM E-score of 8-mer |
| --- | --- |
| AGACTGCC | -0.115 ± 0.05 |
| CACCACCG | 0.245 ± 0.067 |
| CCGTGGGC | -0.252 ± 0.033 |
| AGCCAGTC | -0.0565 ± 0.013 |
| AGAAGCGG | -0.0886 ± 0.016 |
| AGTATGAA | -0.247 ± 0.075 |
| AGTTTGAG | -0.146 ± 0.046 |
| GCAGTCGC | -0.00368 ± 0.029 |
| GGCCGTGA | 0.109 ± 0.00065 |
| ATAGGGGA | -0.275 ± 0.012 |
| GACGTTGC | 0.0262 ± 0.013 |
| ATATCATA | -0.0109 ± 0.041 |
| ATATGCGC | 0.0237 ± 0.1 |
| ATGAGGCA | -0.141 ± 0.065 |
| CTTATAGC | -0.0766 ± 0.031 |
| CATCCAAC | -0.02 ± 0.0088 |
| AGGTACCC | -0.213 ± 0.093 |
| AAGTCCCC | -0.189 ± 0.0086 |
| CATAGTAG | -0.286 ± 0.031 |
| CTATGAGC | -0.0478 ± 0.0082 |
| TAGCTAGA | -0.038 ± 0.022 |
| AAGTACGG | -0.174 ± 0.029 |

| Sequence | PBM E-score of 8-mer |
| --- | --- |
| AACCCGGG | -0.175 ± 0.057 |
| GAGGGTGA | 0.279 ± 0.005 |
| CGGCACCG | 0.0968 ± 0.041 |
| AATGCCGC | -0.00673 ± 0.092 |
| CACGACTC | 0.17 ± 0.0075 |
| GAACAACC | -0.0331 ± 0.022 |
| CAAACTTG | 0.035 ± 0.026 |
| CAATGCTC | -0.299 ± 0.038 |
| ATTGTAAG | -0.12 ± 0.062 |
| CCACAAGG | -0.122 ± 0.046 |
| GCGGATCC | -0.0974 ± 0.014 |
| AATTCATG | 0.0832 ± 0.065 |
| CCACTAGC | 0.0972 ± 0.082 |
| CACCGATC | 0.138 ± 0.051 |
| CAATGCCC | -0.0602 ± 0.0035 |
| AGGTGAAA | 0.347 ± 0.022 |
| ACTCACAA | 0.1 ± 0.01 |
| GAACGCGC | 0.0649 ± 0.023 |
| AGAGTGGA | -0.115 ± 0.077 |
| GCGACGAC | 0.175 ± 0.045 |
